Data as given in PubChem BioAssay AID686979 (National Center for Advancing Translational Sciences (NCATS), 2013).
Out of some 420,000 compounds screened, about 50,000 (12%) were called active. The inconclusive results got no clear call from the source; some entries with a clear call stand among them for comparison. Calls follow the shape of the dose curve; as a rule, active = well fitted inhibition curve with a large enough effect; inconclusive = small, poorly fitted or top-dose-only effect; inactive = flat fitted curve, though single readings scatter. No potency is given beside an inconclusive call; the fits are too rough.
% is scaled to controls: 0 for no effect and ±100 for the full control effect; potency is read from the fitted curve at half-maximal effect; tags tell the direction and shape of the fitted curve.

Assay: qHTS for Inhibitors of human tyrosyl-DNA phosphodiesterase 1 (TDP1): qHTS in cells in presence of CPT; also: nearly all actives have a fitted effect of over 55% in size
Conditions: chicken DT40 Tdp1-/-;hTDP1 cells + 20 nM CPT, ATP luminescence, 48 h; activity change, negative = growth inhibition: at 46.2 µM (top of the series)
Outline: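 Chicken DT40 Tdp1-/- cells complemented with human TDP1, 400 cells/well, exposed to compounds plus 20 nM camptothecin for at least 48 h at 37 C; viability read as ATP content by CellTiter-Glo luminescence.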
With COc1ccc(NC(=O)CSc2ccc3c4c(cccc24)C(=O)c2ccccc2-3)cc1 the Potency was inconclusive [inhibitor, single point].
In the case of COc1ccc(S(=O)(=O)N2N=C(c3cccc(NS(C)(=O)=O)c3)CC2c2ccco2)cc1 (stereo not given), the Potency is reported as inconclusive [inhibitor, single point].
For COc1cccc(C(NC(C)=O)c2nc(-c3cccc(C(C)C)c3)cs2)c1 (stereo not given), the Potency was inconclusive [inhibitor, single point].
In the case of CCSc1nn(CC(=O)Nc2cccc(Cl)c2)c(N)c1S(=O)(=O)c1ccc(OC)cc1, the Potency is reported as inconclusive [inhibitor, single point].
For CCC(C)n1c(/C=C/c2ccccc2)nc2ccccc21 (stereo not given), the Potency was inconclusive [inhibitor, single point].
For NS(=O)(=O)c1ccc(CCNC(=O)C(=O)Nc2cc3c4c(c2)CC(=O)N4CCC3)cc1, the Potency was “inactive”.
With COc1ccc(C(=O)C2CCN(C(=O)c3ccc(F)cc3)CC2)cc1 the Potency was inconclusive [inhibitor, partial curve].
For COC(=O)CC1Oc2ccc(C)cc2-n2cc(-c3ccc(C)cc3)nc21 (stereo not given), the Potency was active: 16.4 µM.
With Cc1ccc(CSc2oc(-c3cccs3)nc2S(=O)(=O)c2ccc(C)cc2)cc1 the Potency was active: 13 µM.
In the case of COc1cccc(C#CC2=CC(=O)CC(C)(C)C2)c1, the Potency is reported as active: 5.8 µM.
In the case of Cc1ccc(OCC(=O)N2CCc3ccccc32)cc1, the Potency is reported as “inactive”.
For CCCCN(CC(=O)Nc1cccc(S(=O)(=O)N2CCCC2)c1)Cc1nc2ccccc2c(=O)[nH]1, the Potency was inconclusive [inhibitor, single point].
With Cc1ccc(NC(=O)CN2C(=O)S/C(=C\c3ccc(-c4cccc(C(=O)O)c4C)o3)C2=O)cc1C the Potency was “inactive”.
With O=C(/C=C/c1ccc(Cl)cc1)NCc1ccco1 the activity change, negative = growth inhibition was inconclusive: -21.9% [inhibitor].
In the case of O=C(COC(=O)C1Cc2ccccc2CN1C(=O)c1ccccc1)Nc1ccc(SC(F)F)cc1 (stereo not given), the Potency is reported as inconclusive [inhibitor, single point].
With C[C@@H]1CN([C@H](C)CO)C(=O)CCCn2cc(nn2)CO[C@H]1CN(C)C(=O)NC1CCCCC1 the Potency was “inactive”.
For COc1ccc(-c2nc(SCC(=O)Nc3ccc4c(c3)OCCO4)c(-c3ccccc3)[nH]2)cc1, the Potency was inconclusive [inhibitor, single point].
For CCCc1cc(=O)oc2cc(C)cc(OC(C)C(=O)NCC(O)c3ccccc3)c12 (stereo not given), the Potency was inconclusive [inhibitor, single point].
For O=C(COc1cccc2ccccc12)NNC(=O)c1cnccn1, the Potency was inconclusive [inhibitor, single point].
In the case of OC1(Cc2cc(-c3ccccc3)no2)CCN(CCCc2ccccc2)CC1, the Potency is reported as inconclusive [inhibitor, single point].
With C=CCn1cnc2c(nnn2Cc2ccc(F)cc2)c1=O the Potency was “inactive”.
With CC1C/C(=N/NC(=O)c2cccc(F)c2)c2ccc(O)cc2C1 (stereo not given) the Potency was active: 22.4 µM.
With Cc1ccc(N(CC(=O)N2CCc3ccccc3C2)S(C)(=O)=O)cc1 the Potency was “inactive”.
With CC12CCC(=O)N1C(C(=O)N1CCN(c3ccccc3)CC1)CS2 (stereo not given) the Potency was “inactive”.
In the case of CCCN(CCC)C(=O)Cn1c(=O)n(Cc2ccc(C(=O)NCCc3ccc(Cl)cc3)cc2)c(=O)c2ccccc21, the Potency is reported as inconclusive [inhibitor, partial curve].
For Cc1nn(-c2ccc(F)cc2F)c2c1-c1nc(N3CCCC3)ncc1CC2, the Potency was inconclusive [inhibitor, partial curve].
With Cc1ccc2oc(C(=O)Nc3sc4c(c3C(=O)NCc3cccnc3)CCCC4)cc(=O)c2c1 the Potency was “inactive”.
For CCCCCC/C=N/Nc1nnc(Cc2ccc(OC)c(OC)c2)c(=O)[nH]1, the Potency was inconclusive [inhibitor, full curve, poor fit].
With COC(=O)c1ccccc1NC(=O)CN1CCN(Cc2ccccc2)CC1 the Potency was inconclusive [inhibitor, single point].
With O=C(CC1C(=O)NCCN1Cc1c(F)cccc1Cl)NC1CCCC1 (stereo not given) the Potency was “inactive”.
In the case of CCOC(=O)/C(C#N)=C/c1ccc(-c2ccc(C)cc2)o1, the Potency is reported as inconclusive [inhibitor, single point].
With CC1CCCN(CC(O)COc2ccc(-c3ccccc3)cc2)C1 (stereo not given) the Potency was inconclusive [inhibitor, single point].
With Cc1c(N/C=C/C(=O)c2ccc(Cl)cc2)c(=O)n(-c2ccccc2)n1C the Potency was “inactive”.
With COc1ccccc1NS(=O)(=O)c1cc2c(cc1Cl)NC(=O)CO2 the Potency was inconclusive [inhibitor, single point].
For CCCN1CCc2c(sc3nc(SCC)n(-c4ccccc4)c(=O)c23)C1, the Potency was inconclusive [inhibitor, single point].
In the case of N=c1n(CCN2CCCCC2)c2ccccc2n1CC(O)c1cccc(Br)c1 (stereo not given), the Potency is reported as active: 14.6 µM.
In the case of CCOC(=O)c1cnc2ccc(OCC)cc2c1N1CCN(c2ccccc2OC)CC1, the Potency is reported as inconclusive [inhibitor, single point].
With O=C(Nc1ccc(OCc2ccccc2)cc1)Nc1nnc([C@@H]2C[C@H](O)[C@@H](CO)O2)s1 the Potency was inconclusive [inhibitor, single point].
With CCOC(=O)N1CCN(c2nc3ccccc3nc2C(C#N)C(=O)NCCc2ccccc2)CC1 (stereo not given) the Potency was active: 16.4 µM.
In the case of COCC(=O)Nc1cc(C(=O)N2CCCC(C(C)=O)C2)cc2nc(-c3ccccc3)n(C)c12 (stereo not given), the Potency is reported as “inactive”.
With CC(CC(c1ccccc1)N1CCc2ccccc2C1)=NO (stereo not given) the Potency was inconclusive [inhibitor, single point].
In the case of O=C(N/N=C/c1ccc(O)cc1)c1ccc(COc2cc(Cl)ccc2Cl)o1, the Potency is reported as inconclusive [inhibitor, single point].
For S=C(NCc1ccc(Cl)cc1)NN1CCOCC1, the Potency was “inactive”.
With CCOC(=O)Cn1nnnc1CN(Cc1ccc(OC)cc1)Cc1cc2cc(CC)ccc2[nH]c1=O the Potency was active: 14.6 µM.
In the case of COC(=O)c1c(OCc2cccnc2)cc(=O)n2c1CCN(C(=O)c1ccc(OC)c(F)c1)CC2, the Potency is reported as “inactive”.
